Measured values as given in ChEMBL document CHEMBL1201862, “PubChem BioAssay data set” (2004).

Test system: NCI-H322M
Experiment: NCI anticancer screen, dose series, 48 h

Row | Structure (SMILES) | GI50
1 | O=C(C[N+]1(c2ccccc2)CCOCC1)c1ccccc1 | inactive: > 100 µM
2 | CN(C)c1ccc(C=c2c3ccccc3n3c2c2c([n+]3C)CCCC2)cc1 | active: 0.38 µM
3 | C(/C=C/N1CCCC1)=C\c1nc(N2CCCC2)c2ccccc2n1 | inactive: 75.7 µM
4 | CC(C)(C)[Si](C)(C)OCCCC#CCO | inactive: > 100 µM
5 | CN(C)CCN1N=Nc2cccc3cccc1c23 | inactive: > 100 µM
6 | Cc1cccc(/N=N/c2c(C)nn(C(=O)CC(=O)Nc3ccc(Cl)cc3)c2C)c1 | inactive: 67.8 µM
7 | COc1nc(NC2OC(COC(C)=O)C(OC(C)=O)C(OC(C)=O)C2OC(C)=O)c(/N=C(\C)C(C)=O)c(=O)n1C (stereo unspecified) | inactive: > 100 µM
8 | COc1ccc(N(CN2C(=O)CCC2OC)C(C)=O)cc1 (stereo unspecified) | inactive: > 100 µM
9 | c1cc(CSP234N5CCN2CCN3CCN4CC5)cc(CSP234N5CCN2CCN3CCN4CC5)c1 | inactive: 29.9 µM
10 | CC1=C2CC(C)(C)/C=C\C(=O)/C(C)=C\C3=C[C@H](C)C[C@]3(O2)C1=O | inactive: 4.78 µM
11 | COc1ccc(CNc2nc(NCc3ccc(OC)cc3)nc(NC(C)C)n2)cc1 | inactive: 11.4 µM
12 | Clc1ccc(/C=N/c2ccc(Oc3ccc(Cl)cc3)c(Cl)c2)cc1 | inactive: 23.8 µM
13 | COc1ccc(C(F)(F)F)cc1NC(=O)O/N=C(/Cl)C(C)C | inactive: 18.8 µM
14 | COC(=O)/C=C/c1c(CC=C(C)C)ncn1C | inactive: > 80 µM
15 | CCOC(=O)/C(C#N)=C(O)/C(=C\c1ccc(Br)cc1)NC(=O)c1ccccc1 | inactive: > 100 µM
16 | Cc1ccc(C(=O)Nc2ncn(C3CC(O)C(CO)O3)c(=O)n2)cc1 (stereo unspecified) | inactive: > 100 µM
17 | COc1cc([C@@H]2c3cc4c(cc3[C@@H](OC(=O)c3ccccc3)C3COC(=O)[C@@H]32)OCO4)cc(OC)c1O (stereo partly specified) | active: 0.0264 µM
18 | O=C1C=CC=C/C1=C1\N=C(c2ccccc2OCC(=O)c2ccc(Br)cc2)SS1 | inactive: > 100 µM

Row | Structure (SMILES) | GI50
19 | CCOC(=O)c1ccc(-c2cccs2)[nH]1 | inactive: > 100 µM
20 | COc1cccc2cc(C(N)=O)c(=N)oc12 | inactive: 39.8 µM
21 | CCOC(=O)/C(C#N)=C1\c2c([nH]c(=S)[nH]c2=O)Oc2ccc3ccccc3c21 | active: 0.064 µM
22 | COc1cc(Br)c(/C=N\c2cccc3cc(OC)c(OC)cc23)cc1OC | inactive: > 100 µM
23 | NC1=NN(c2ccccc2)C(=O)C1/C(=N\NC(=O)c1cc2ccccc2cc1O)C(=O)Nc1nc([N+](=O)[O-])cs1 (stereo unspecified) | inactive: 24.6 µM
24 | CCOc1cc(/C=N/c2ccc(Oc3ccc(Cl)cc3)c(Cl)c2)ccc1O | inactive: 24 µM
25 | O=C(CC(NC(=O)OCc1ccccc1)C(=O)NC1Cc2ccccc2C1=O)OCc1ccccc1 (stereo unspecified) | inactive: > 100 µM
26 | COc1c2occc2c(OC)c2c(=O)c(S(=O)(=O)NC(=O)Nc3ccc(Cl)cc3)coc12 | inactive: > 10 µM
27 | N#C/N=C(/NCc1ccccc1)N(Cc1ccccc1)Cc1ccccc1 | inactive: > 31.6 µM
28 | CN/N=C(/c1nc2ccc([N+](=O)[O-])cc2nc1O)C(O)c1ccc(C(O)/C(=N\NC)c2nc3ccc([N+](=O)[O-])cc3nc2O)cc1 (stereo unspecified) | inactive: > 100 µM
29 | O=c1[nH]c2cc3cccnc3c(Cl)c2nc1CBr | inactive: 15.3 µM
30 | COc1cccc(C(=O)C(O)c2cccc(OC)c2OC)c1OC (stereo unspecified) | inactive: > 100 µM
31 | C=C1C(=O)O[C@H]2C1C[C@@H](O)[C@@]1(C)OC1CC[C@@]1(C)O[C@H]21 (stereo partly specified) | inactive: 21.2 µM
32 | C=CC(C)(C)/C=C/c1ccc(O)cc1 | inactive: 69.5 µM
33 | O=C(CCC(=O)c1ccsc1)c1ccsc1 | inactive: 56.8 µM
34 | Clc1ccc(C(OCn2ccnc2)c2nc3ccccc3[nH]2)c(Cl)c1 (stereo unspecified) | inactive: > 100 µM
35 | CC(/C=C/C(=O)c1sc(C(N)=S)nc1C)=C\c1ccccc1 | inactive: > 100 µM
36 | O=[N+]([O-])c1ccccc1S(=O)(=O)c1ccccc1 | inactive: > 100 µM

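Assay format: 96-well plates, 48-hour exposure. Abbreviation: GI50, concentration required for 50% inhibition of growth.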 Active and inactive are the calls of the source. Rule as the data show it: active = GI50 up to about 1.1 µM and inactive = higher.
